{
  "source": "PubChem BioAssay AID463173",
  "about": "(ICCB-Longwood Screening Facility, Harvard Medical School, 2010)",
  "note": "In all, about 52,000 compounds went through this assay and about 1,700 (3.3%) were called active. No stated cut-off is given here; in the data, active means survival mostly below about 52% (no sharp cut-off); inactive means mostly above about 56%. This is one part of the list.",
  "data": [
    {"system": "Wild type", "experiment": "growth inhibition of S. aureus wild type versus tarO mutant, primary screen, teichoic acid synthesis inhibitors, RN4220, OD600 (AID 463173)", "settings": "S. aureus RN4220 wild type/DeltatarO growth, OD600, 18 h, stronger effect = lower value, screened at 18.75 µg/mL (by protocol)", "values": [
      {"smiles": "CC1=C(C(=O)Nc2ccccc2)C(c2ccccc2C)n2nc(SCC(=O)c3ccc(C)cc3)nc2N1", "note": "(configuration not stated)", "survival": "inactive: 91%"},
      {"smiles": "CCOC(=O)c1ccccc1NC(=O)N1CCN(Cc2cc(=O)n3nc(-c4ccccc4)sc3n2)CC1", "survival": "inactive: 84%"},
      {"smiles": "COC(=O)c1c(-c2cccs2)csc1NC(=O)c1cccc(Cl)c1", "survival": "inactive: 109%"},
      {"smiles": "COC(=O)c1c(-c2cccs2)csc1NC(=O)c1ccc(Br)cc1", "survival": "inactive: 68%"},
      {"smiles": "Cc1cccc(NC(=O)CSc2nc(-c3cccs3)cc(C(F)(F)F)c2C#N)c1C", "survival": "inactive: 94%"},
      {"smiles": "O=C(NCCc1csc(-c2ccc(C(F)(F)F)cc2)n1)c1ccc(F)c(F)c1", "survival": "inactive: 72%"},
      {"smiles": "O=C(Nc1ccccc1Cl)NC1(C(=O)N2CCCCC2)CCCCC1", "survival": "inactive: 110%"},
      {"smiles": "CCOc1ccc(-c2cc(CCCC(=O)NCCc3ccc(Cl)cc3)no2)cc1", "survival": "inactive: 83%"},
      {"smiles": "CCc1ccc(NC(=O)CCS(=O)(=O)c2cc3c(cc2Cl)NC(=O)CO3)cc1", "survival": "inactive: 83%"},
      {"smiles": "CC(O)CNCc1ccc2c(c1)OCO2", "note": "(configuration not stated)", "survival": "inactive: 90%"},
      {"smiles": "CCN(c1cccc(C)c1)S(=O)(=O)c1ccc(-n2cccn2)cc1", "survival": "inactive: 69%"},
      {"smiles": "Cc1ccc(C(=O)N2CCc3cc(CNC(=O)CSc4ccccc4)ccc32)cc1", "survival": "inactive: 81%"},
      {"smiles": "Cc1ccc(-c2cc(C(=O)NCc3cnn(C)c3C)c3ccccc3n2)cc1C", "survival": "inactive: 79%"},
      {"smiles": "CCN(c1ccccc1)S(=O)(=O)c1cc(Br)cc2c1N(C(=O)C1CC1)CC2", "survival": "inactive: 82%"},
      {"smiles": "Cc1cccc(N(C(=O)c2csnn2)C(C(=O)NC2CCCCC2)c2ccco2)c1", "note": "(configuration not stated)", "survival": "inactive: 109%"},
      {"smiles": "Cc1cccc(-c2c3c(=O)n(C)c(=O)n(C)c3c3c(C)nc4ccccc4n23)c1", "survival": "inactive: 133%"},
      {"smiles": "N#Cc1ccc(S(=O)(=O)N2CCC(Oc3cccc(C(F)(F)F)c3)CC2)cc1", "survival": "inactive: 84%"},
      {"smiles": "COc1cc(OC)c(OC)cc1CN1CCc2nc(Nc3ccc4c(c3)OCCO4)ncc2C1", "survival": "inactive: 89%"},
      {"smiles": "CCCNC(=O)C1=CC(c2ccc3c(c2)OCO3)=NS(=O)(=O)N1C", "survival": "inactive: 86%"},
      {"smiles": "COc1ccc(CNC(=O)C(=O)Nc2c3c(nn2-c2ccccc2)CSC3)cc1", "survival": "inactive: 117%"},
      {"smiles": "Cn1c(=O)c2c(nc(N3CCOCC3)n2Cc2cccc(Br)c2)n(C)c1=O", "survival": "inactive: 73%"},
      {"smiles": "Cc1ccccc1CNC(=O)Cc1ccc(NC(=O)N2CCCCc3ccccc32)cc1", "survival": "inactive: 81%"},
      {"smiles": "COc1ccc(N2CCN(C(CNC(=O)C(=O)NCc3cccnc3)c3cccnc3)CC2)cc1", "note": "(configuration not stated)", "survival": "inactive: 106%"},
      {"smiles": "Cc1[nH]n2c(=O)cc(-c3ccc(Cl)cc3)nc2c1-c1ccccc1", "survival": "active: -17%"},
      {"smiles": "Cc1c(C(=O)N2CCCCC2)c(S(=O)(=O)NCc2ccc(N(C)C)cc2)c(C)n1C", "survival": "inactive: 128%"},
      {"smiles": "Cc1nn2c(-c3ccco3)ccnc2c1-c1ccc(Br)cc1", "survival": "inactive: 70%"},
      {"smiles": "CCOc1ccc(C(=O)c2cn(CC(=O)Nc3cccc(OC)c3)c3cc4c(cc3c2=O)OCCO4)cc1", "survival": "inactive: 147%"},
      {"smiles": "COc1ccc(CNC(=O)c2ccc3nc(CCc4ccccc4)oc3c2)cc1", "survival": "active: -2%"},
      {"smiles": "COc1ccccc1CNC(=O)C(C)n1ccc2cc(S(=O)(=O)N3CCCC3)ccc21", "note": "(configuration not stated)", "survival": "inactive: 71%"},
      {"smiles": "Cc1ccc(C2Nc3cc(C)c(C)cc3-n3c(-c4ccccc4)c4c(=O)n(C)c(=O)n(C)c4c32)o1", "note": "(configuration not stated)", "survival": "inactive: 77%"},
      {"smiles": "Cc1cccc(N2CCN(C(=O)C3CCN(C(=O)c4cc5sccc5n4C)CC3)CC2)c1C", "survival": "inactive: 57%"},
      {"smiles": "CCOc1ccc(NC(=O)C2CCN(c3nnc(C)c4c(C)n(-c5ccccc5)nc34)CC2)cc1", "survival": "inactive: 76%"},
      {"smiles": "Cc1ccc(NC(=O)CSc2nc3c([nH]c4ccccc43)c(=O)n2-c2ccccc2)cc1Cl", "survival": "inactive: 72%"},
      {"smiles": "Cc1ccc(-c2[nH]c3c(c2-c2c(-n4cccc4)n(C)c(=O)[nH]c2=O)c(=O)[nH]c(=O)n3C)cc1", "survival": "inactive: 82%"},
      {"smiles": "CCOC(=O)c1c(C)oc2nc(C)nc(N3CCN(c4ccccc4F)CC3)c12", "survival": "inactive: 72%"},
      {"smiles": "Cc1ccc(F)cc1NC(=O)CCc1c(C)nn(-c2ccc(N3CCOCC3)nn2)c1C", "survival": "inactive: 113%"},
      {"smiles": "CC1Cn2c(C(=O)NCCc3ccc(Cl)cc3)cc3cccc(c32)S1", "note": "(configuration not stated)", "survival": "inactive: 91%"},
      {"smiles": "N#C/C(=C\\c1ccc[nH]1)C(=O)N1CCc2ccccc2C1", "survival": "inactive: 109%"},
      {"smiles": "Cc1ccc2[nH]cc(S(=O)(=O)c3ccc(C)c(C)c3)c(=O)c2c1", "survival": "inactive: 77%"},
      {"smiles": "CSc1ccc(C2CC(=O)Oc3c2c(=O)n(C)c2ccccc32)cc1", "note": "(configuration not stated)", "survival": "inactive: 69%"},
      {"smiles": "Cc1c(C(=O)N2CCCC2)oc2c1-c1nn(CC(=O)NCc3ccccc3Br)cc1CC2", "survival": "inactive: 81%"},
      {"smiles": "Cc1ccc(/C=C/c2onc(C)c2S(=O)(=O)N2CCC(C(=O)N3CCOc4ccc(C)cc43)CC2)cc1", "survival": "inactive: 124%"},
      {"smiles": "Cc1nnc(N(C)C(=O)Cc2ccc3c(c2)OCO3)s1", "survival": "inactive: 109%"},
      {"smiles": "COc1ccc(NC(=O)CCS(=O)(=O)c2nc(-c3ccc4c(c3)OCO4)cc(C(F)(F)F)n2)cc1", "survival": "inactive: 81%"},
      {"smiles": "COc1ccc(C)cc1NC(=O)CCc1c(C)nn(-c2ccc(N3CCCCC3)nn2)c1C", "survival": "inactive: 71%"},
      {"smiles": "CC(c1ccccc1)n1cc(C(=O)NCCCN2CCCC2=O)nn1", "note": "(configuration not stated)", "survival": "inactive: 116%"},
      {"smiles": "CC1C(=O)CCNC1c1ccccc1", "note": "(configuration not stated)", "survival": "inactive: 95%"},
      {"smiles": "O=C(CN1C(=O)COc2ccc(S(=O)(=O)N3CCCCCC3)cc21)Nc1cccc(Cl)c1", "survival": "inactive: 53%"},
      {"smiles": "COc1ccc(-c2cc(C(=O)Oc3ccc(C)cc3)c3cc(C)ccc3n2)cc1", "survival": "inactive: 22%"},
      {"smiles": "CC1CCN(c2nn3c(=O)c(C(=O)NCCc4ccccc4)cnc3s2)CC1", "survival": "inactive: 80%"},
      {"smiles": "Cc1cc(=O)n(C(C)C(=O)N2CCCc3ccccc32)c2c1c(C)nn2-c1ccccc1", "note": "(configuration not stated)", "survival": "inactive: 115%"},
      {"smiles": "CC(=O)N1CCc2c(sc3nc(SCC(C)C)n(-c4ccc(C)c(Cl)c4)c(=O)c23)C1", "survival": "inactive: 44%"},
      {"smiles": "Cc1ccc(-c2nnc(Nc3ccc(OC(F)(F)Cl)cc3)c3ccccc23)cc1S(=O)(=O)NC(C)(C)CO", "survival": "inactive: 81%"},
      {"smiles": "Cc1nc2scc(C)n2c(=O)c1S(=O)(=O)Nc1ccc(N2CCN(S(C)(=O)=O)CC2)cc1", "survival": "inactive: 84%"},
      {"smiles": "O=C(Nc1ccc(-c2nc3cc(NC(=O)c4ccc(F)cc4)ccc3o2)cc1)c1ccc(F)cc1", "survival": "inactive: 70%"},
      {"smiles": "CCc1nn2c(=O)cc(COC(=O)c3ccc(NC(=O)CCc4ccccc4)cc3)nc2s1", "survival": "inactive: 78%"},
      {"smiles": "O=C(Nc1cccnc1)c1ccccc1Oc1ccccc1", "survival": "inactive: 107%"},
      {"smiles": "COc1cccc(C2(O)CCN(C(=O)C3CCC3)CC2)c1", "survival": "inactive: 99%"},
      {"smiles": "O=C(COc1ccccc1)N(Cc1cccnc1)c1nc2c(F)cccc2s1", "survival": "inactive: 69%"},
      {"smiles": "Nc1ccc(NC(=O)c2cccc(C(=O)Nc3ccc(N)cc3Cl)c2)c(Cl)c1", "survival": "inactive: 144%"},
      {"smiles": "Cc1c(C(=O)NN=C2CCCCCC2)nnn1-c1nonc1N", "survival": "inactive: 99%"},
      {"smiles": "CCc1nc(SC)ncc1C(=O)N1CCN(c2cc(Cl)ccc2C)CC1", "survival": "inactive: 66%"},
      {"smiles": "Cc1nn(C(C)C(=O)Nc2ccc(C(C)C)cc2)c(=O)c2c1sc1ccccc12", "note": "(configuration not stated)", "survival": "inactive: 83%"},
      {"smiles": "CCCN(CCC)CCCNC(=O)c1cnn(-c2ccc(F)cc2)c1-n1cccc1", "survival": "inactive: 118%"},
      {"smiles": "COc1cc(-c2nc(SCC(=O)Nc3ccc(C)cc3)c(-c3ccc(F)cc3)[nH]2)cc(OC)c1OC", "survival": "inactive: 106%"},
      {"smiles": "COc1cc(/C=C(\\C#N)c2nc3ccccc3[nH]2)ccc1OCc1ccc(F)cc1", "survival": "inactive: 75%"},
      {"smiles": "CCc1ccccc1NC(=O)c1cc(S(=O)(=O)N2CCc3ccccc32)ccc1F", "survival": "inactive: 76%"},
      {"smiles": "Cc1nnc(SCC#N)n1C", "survival": "inactive: 103%"},
      {"smiles": "CCCn1c2ccccc2c2cnn(CC(=O)NCC3CCN(Cc4ccc(F)cc4)CC3)c(=O)c21", "survival": "inactive: 74%"},
      {"smiles": "COc1ccccc1CNc1nc(-c2ccco2)nn1C(=O)c1cc(OC)c(OC)c(OC)c1", "survival": "inactive: 69%"},
      {"smiles": "Cc1cccc(-c2nn3c(=O)cc(CN4CCN(C(=O)c5ccccc5Br)CC4)nc3s2)c1", "survival": "inactive: 143%"},
      {"smiles": "C#CC(C)(CC)NC(=O)Cn1nnc(-c2ccc(OCc3ccccc3C)cc2)n1", "note": "(configuration not stated)", "survival": "inactive: 143%"},
      {"smiles": "COc1ccccc1N1CCN(C(=O)c2cnn(-c3cccc(Cl)c3)c2C2CCN(C(=O)OC(C)(C)C)CC2)CC1", "survival": "inactive: 83%"},
      {"smiles": "Cc1ccccc1CNC(=O)C1=Cc2ccccc2OC1", "survival": "inactive: 77%"},
      {"smiles": "CCOC(=O)c1c(C)[nH]c(CCC(=O)NCc2ccc(OC)c(OC)c2)c1C", "survival": "inactive: 68%"},
      {"smiles": "CCn1c2ccccc2c2nnc(N3CCN(c4cccc(Cl)c4)CC3)nc21", "survival": "inactive: 72%"},
      {"smiles": "COc1ccc(S(=O)(=O)N2CCC(N3CCN(Cc4ccccc4)C(=O)C3=O)CC2)cc1", "survival": "inactive: 75%"},
      {"smiles": "CCC(=O)OCCN1C(=O)c2ccccc2C1=O", "survival": "inactive: 101%"},
      {"smiles": "Cc1ccc(N2CCn3c2nc2c3c(=O)n(C/C=C/c3ccccc3)c(=O)n2C)cc1C", "survival": "inactive: 76%"},
      {"smiles": "CCc1ccc(NC(=O)CCc2c(C)nc3nc(-c4cc(OC)cc(OC)c4)nn3c2C)cc1", "survival": "inactive: 134%"},
      {"smiles": "CSc1nn(CC(=O)Nc2ccccc2F)c(N)c1S(=O)(=O)c1ccccc1", "survival": "inactive: 90%"},
      {"smiles": "COc1ccc(CNC(=O)Cc2c(C)c3cc4c(C)coc4cc3oc2=O)cc1", "survival": "inactive: 88%"},
      {"smiles": "COc1ccc(-c2noc(CCCC(=O)Nc3cccc(Cl)c3C)n2)cc1", "survival": "inactive: 91%"},
      {"smiles": "Cc1ccc(CN2CCSc3ccc(C(=O)NCc4ccc(OC(C)C)cc4)cc32)cc1", "survival": "inactive: 81%"},
      {"smiles": "CC1CN(C(C)(C)C)CCC1(O)c1ccccc1", "note": "(configuration not stated)", "survival": "inactive: 108%"},
      {"smiles": "COc1ccccc1-c1c(C)nn2c(-c3ccccc3)cc(-c3ccccc3)nc12", "survival": "inactive: 77%"},
      {"smiles": "CCOc1ccc(C2=NC(c3ccncc3)=Nc3ccc(C)cc3N2)cc1OCC", "survival": "inactive: 119%"}
    ]}
  ]
}
